Enrichment ratio data for 195 variants are collected here from a collection of fitness landscapes (doi:10.1126/science.1257360).

The other results are listed elsewhere or left out.

B1: PhoQ; a variant is named by its letters at X, in order, P23837 (parent)
chain: MKKLLRLFFPLSLRVRFLLATAAVVLVLSLAYGMVALIGYSVSFDKTTFRLLRGESNLFYTLAKWENNKLHVELPENIDKQSPTMTLIYDENGQLLWAQRDVPWLMKMIQPDWLKSNGFHEIEADVNDTSLLLSGDHSIQQQLQEVREDDDDAEMTHSVAVNVYPATSRMPKLTIVVVDTIPVELKSSYMVWSWFIYVLSANLLLVIPLLWVAAWWSLRPIEALAKEVRELEEHNRELLNPATTRELTSLVRNLNRLLKSERERYDKYRTTLTDLTHSLKTPLXXLQXXLRSLRSEKMSVSDAEPVMLEQISRISQQIGYYLHRASMRGGTLLSRELHPVAPLLDNLTSALNKVYQRKGVNISLDISPEISFVGEQNDFVEVMGNVLDNACKYCLEFVEISARQTDEHLYIVVEDDGPGIPLSKREVIFDRGQRVDTLRPGQGVGLAVAREITEQYEGKIVAGESMLGGARMEVIFGRQHSAPKDE

This assay covers variants of B1. Put plainly: enrichment ratio after two sorts for PhoP signalling (ratio (wild type AVST 3.29)); higher = more functional. Particulars: with PhoP (E. coli).
In the case of SEEH, the enrichment ratio was 10.2.

For the variant HASS, the enrichment ratio was no more than 0.25.

With GGWP, the enrichment ratio is no more than 0.25.

Consider RAHP, for which the enrichment ratio is no more than 0.25.

On to TPIN, for which the enrichment ratio was no more than 0.25.

Take YYSC: the enrichment ratio was no more than 0.25.

NYRW: the enrichment ratio is no more than 0.25.

As to YADA, the enrichment ratio is no more than 0.25.

As for QSVQ, the enrichment ratio was no more than 0.25.

For the variant DMNQ, the enrichment ratio is no more than 0.25.

As to NLDM, the enrichment ratio was no more than 0.25.

RPDQ: the enrichment ratio was no more than 0.25.

Regarding IFFT, the enrichment ratio was no more than 0.25.

Turning to NMGT, the enrichment ratio was no more than 0.25.

For VHIS, the enrichment ratio was no more than 0.25.

On to VQIW, for which the enrichment ratio was no more than 0.25.

In the case of DYHV, the enrichment ratio was no more than 0.25.

Consider HVEP, for which the enrichment ratio amounted to 0.392.

Regarding NPSG, the enrichment ratio was no more than 0.25.

For the variant VWYF, the enrichment ratio is no more than 0.25.

Turning to FHKM, the enrichment ratio was no more than 0.25.

Consider HDLV, for which the enrichment ratio was no more than 0.25.

On to RQLC, for which the enrichment ratio was no more than 0.25.

For the variant WIFF, the enrichment ratio is no more than 0.25.

For the variant SCKT, the enrichment ratio was no more than 0.25.

Regarding REEF, the enrichment ratio was no more than 0.25.

Consider GRFT, for which the enrichment ratio is no more than 0.25.

With DAWL, the enrichment ratio is no more than 0.25.

Consider MCNR, for which the enrichment ratio is no more than 0.25.

Turning to ARPQ, the enrichment ratio was no more than 0.25.

In the case of ERHT, the enrichment ratio was no more than 0.25.

Consider WHFP, for which the enrichment ratio was no more than 0.25.

As to PLPI, the enrichment ratio was no more than 0.25.

In the case of KHTW, the enrichment ratio was no more than 0.25.

For the variant QLID, the enrichment ratio is no more than 0.25.

As to TERF, the enrichment ratio was no more than 0.25.

MRQG: the enrichment ratio was no more than 0.25.

Consider GVWP, for which the enrichment ratio was no more than 0.25.

As to MDHN, the enrichment ratio was no more than 0.25.

With SAFY, the enrichment ratio is no more than 0.25.

For the variant HLPS, the enrichment ratio worked out at 0.388.

As for FSNC, the enrichment ratio is no more than 0.25.

Regarding HWQI, the enrichment ratio was no more than 0.25.

As to KKSK, the enrichment ratio was no more than 0.25.

Take EYLF: the enrichment ratio is no more than 0.25.

Turning to TIFP, the enrichment ratio was no more than 0.25.

For the variant IIND, the enrichment ratio is no more than 0.25.

On to KFDL, for which the enrichment ratio is no more than 0.25.

With GARQ, the enrichment ratio is no more than 0.25.

With VVSY, the enrichment ratio is no more than 0.25.

Consider WHAI, for which the enrichment ratio is no more than 0.25.

Regarding KILL, the enrichment ratio is no more than 0.25.

Take VKGY: the enrichment ratio came out at 0.318.

Take ACIA: the enrichment ratio was found to be 5.55.

For IHVS, the enrichment ratio was no more than 0.25.

As for INGI, the enrichment ratio was no more than 0.25.

In the case of FVCY, the enrichment ratio was no more than 0.25.

Take ESCV: the enrichment ratio is no more than 0.25.

Consider QRRD, for which the enrichment ratio is no more than 0.25.

QREG: the enrichment ratio was no more than 0.25.

Consider VTIN, for which the enrichment ratio was no more than 0.25.

In the case of TWMP, the enrichment ratio is no more than 0.25.

As for SDSP, the enrichment ratio was no more than 0.25.

As for SYGC, the enrichment ratio is no more than 0.25.

Regarding ENKS, the enrichment ratio was no more than 0.25.

With HMQY, the enrichment ratio is no more than 0.25.

Take MHHD: the enrichment ratio was no more than 0.25.

LYVG: the enrichment ratio is no more than 0.25.

TIFY: the enrichment ratio is no more than 0.25.

For the variant NCDR, the enrichment ratio is no more than 0.25.

Turning to TWDR, the enrichment ratio is no more than 0.25.

PNIR: the enrichment ratio was no more than 0.25.

Consider FSAR, for which the enrichment ratio is no more than 0.25.

Take CIIS: the enrichment ratio is no more than 0.25.

Consider WPWP, for which the enrichment ratio is no more than 0.25.

AGSN: the enrichment ratio was found to be 7.26.

Turning to SMAE, the enrichment ratio was 25.2.

Take LCDG: the enrichment ratio is no more than 0.25.

In the case of KGEY, the enrichment ratio is no more than 0.25.

Consider TKHW, for which the enrichment ratio is no more than 0.25.

On to TSYW, for which the enrichment ratio is no more than 0.25.

Consider GDRH, for which the enrichment ratio was no more than 0.25.

WITP: the enrichment ratio was no more than 0.25.

As to QMPD, the enrichment ratio was no more than 0.25.

In the case of KMKT, the enrichment ratio is no more than 0.25.

Regarding IGTH, the enrichment ratio was no more than 0.25.

As to FIYR, the enrichment ratio is no more than 0.25.

On to VHEN, for which the enrichment ratio was no more than 0.25.

On to NFDI, for which the enrichment ratio was no more than 0.25.

For CICR, the enrichment ratio was no more than 0.25.

Turning to NRVW, the enrichment ratio was no more than 0.25.

For the variant ETNR, the enrichment ratio was no more than 0.25.

Take WTFN: the enrichment ratio is no more than 0.25.

DKQT: the enrichment ratio was no more than 0.25.

For DKRV, the enrichment ratio was no more than 0.25.

In the case of MKQN, the enrichment ratio is no more than 0.25.

Turning to SLVV, the enrichment ratio is 1.38.

For IEFL, the enrichment ratio is no more than 0.25.

As for EQRA, the enrichment ratio was no more than 0.25.

Take NGEA: the enrichment ratio is no more than 0.25.

For the variant EDMK, the enrichment ratio was no more than 0.25.

Regarding NSNH, the enrichment ratio is no more than 0.25.

As for EMMD, the enrichment ratio was no more than 0.25.

Turning to QACM, the enrichment ratio was no more than 0.25.

As to PRGD, the enrichment ratio is no more than 0.25.

Regarding GMAP, the enrichment ratio is no more than 0.25.

As to LFFR, the enrichment ratio was no more than 0.25.

With GGMD, the enrichment ratio was no more than 0.25.

Turning to GYRS, the enrichment ratio was no more than 0.25.

As to IYRL, the enrichment ratio is no more than 0.25.

With IYMH, the enrichment ratio is no more than 0.25.

Regarding YCEL, the enrichment ratio was no more than 0.25.

On to EGPL, for which the enrichment ratio was no more than 0.25.

As for TEYC, the enrichment ratio amounted to 12.6.

With MKCR, the enrichment ratio was no more than 0.25.

In the case of GYGF, the enrichment ratio is no more than 0.25.

Consider VVIC, for which the enrichment ratio was no more than 0.25.

As for ECRH, the enrichment ratio was no more than 0.25.

On to IAKF, for which the enrichment ratio was no more than 0.25.

As for NHKC, the enrichment ratio is no more than 0.25.

CLLF: the enrichment ratio is no more than 0.25.

With VPGC, the enrichment ratio was no more than 0.25.

With MMQR, the enrichment ratio is no more than 0.25.

Turning to TQEI, the enrichment ratio is no more than 0.25.

For HHIF, the enrichment ratio was no more than 0.25.

Turning to NYYE, the enrichment ratio was no more than 0.25.

Consider GPLV, for which the enrichment ratio is no more than 0.25.

For the variant MYRD, the enrichment ratio was no more than 0.25.

For SDPI, the enrichment ratio was no more than 0.25.

With YKTK, the enrichment ratio was no more than 0.25.

As for SENN, the enrichment ratio was determined as 3.72.

On to KGAQ, for which the enrichment ratio was no more than 0.25.

For the variant SMNE, the enrichment ratio was no more than 0.25.

Consider GKIN, for which the enrichment ratio was no more than 0.25.

Turning to NTMF, the enrichment ratio was no more than 0.25.

Turning to SVNE, the enrichment ratio was no more than 0.25.

With DRLC, the enrichment ratio is no more than 0.25.

As for GFEQ, the enrichment ratio was no more than 0.25.

Turning to TAGA, the enrichment ratio stood at 8.8.

Consider NNQP, for which the enrichment ratio is no more than 0.25.

In the case of VDKI, the enrichment ratio was no more than 0.25.

In the case of WKMG, the enrichment ratio was no more than 0.25.

As to TPTK, the enrichment ratio is no more than 0.25.

With VDGA, the enrichment ratio was no more than 0.25.

As for IPGQ, the enrichment ratio was no more than 0.25.

On to NEDS, for which the enrichment ratio is no more than 0.25.

Regarding KGRD, the enrichment ratio is no more than 0.25.

As to TPCA, the enrichment ratio is no more than 0.25.

In the case of FLVS, the enrichment ratio was no more than 0.25.

Consider LIMC, for which the enrichment ratio was no more than 0.25.

For LDRK, the enrichment ratio was no more than 0.25.

In the case of LDSG, the enrichment ratio is no more than 0.25.

For the variant TCRE, the enrichment ratio was no more than 0.25.

On to ECSG, for which the enrichment ratio is no more than 0.25.

As to PYDQ, the enrichment ratio is no more than 0.25.

On to DMTQ, for which the enrichment ratio was no more than 0.25.

Turning to VQCM, the enrichment ratio came to 2.11.

Take LFKD: the enrichment ratio is no more than 0.25.

In the case of PCTC, the enrichment ratio was no more than 0.25.

For the variant WTKH, the enrichment ratio is no more than 0.25.

For ICWR, the enrichment ratio was no more than 0.25.

Regarding LPNM, the enrichment ratio is no more than 0.25.

In the case of QFGC, the enrichment ratio is no more than 0.25.

On to SKFR, for which the enrichment ratio is no more than 0.25.

Regarding QYIA, the enrichment ratio was no more than 0.25.

In the case of VPSR, the enrichment ratio was no more than 0.25.

As for KAHP, the enrichment ratio is no more than 0.25.

As for FGPP, the enrichment ratio was no more than 0.25.

As to RDWY, the enrichment ratio is no more than 0.25.

For the variant TKIV, the enrichment ratio amounted to 11.9.

As for NLYC, the enrichment ratio is no more than 0.25.

On to TLWM, for which the enrichment ratio was no more than 0.25.

In the case of PAEN, the enrichment ratio is no more than 0.25.

Turning to QNCY, the enrichment ratio was no more than 0.25.

PCVW: the enrichment ratio was no more than 0.25.

On to HDGP, for which the enrichment ratio was no more than 0.25.

NEHA: the enrichment ratio was no more than 0.25.

In the case of PRTR, the enrichment ratio is no more than 0.25.

Regarding AECI, the enrichment ratio stood at 4.88.

As for RNLN, the enrichment ratio is no more than 0.25.

For HAVV, the enrichment ratio is no more than 0.25.

Turning to PIGD, the enrichment ratio was no more than 0.25.

With YADK, the enrichment ratio was no more than 0.25.

On to QHLR, for which the enrichment ratio was no more than 0.25.

Take EMAN: the enrichment ratio is no more than 0.25.

Take WKHI: the enrichment ratio was no more than 0.25.

Turning to VKLM, the enrichment ratio is 4.07.

Consider SLSS, for which the enrichment ratio is 6.86.

For the variant QSHA, the enrichment ratio was no more than 0.25.

Regarding AANY, the enrichment ratio is no more than 0.25.

Regarding RATK, the enrichment ratio was no more than 0.25.

For INNT, the enrichment ratio is no more than 0.25.

With TESC, the enrichment ratio was determined as 13.3.

For TYAV, the enrichment ratio was found to be 0.611.

Turning to NYCY, the enrichment ratio was no more than 0.25.
